# Reference: PubChem BioAssay AID1345083 (National Center for Advancing Translational Sciences (NCATS), 2018)
# Hit rate of the full screen: of about 94,000 compounds, about 6,200 (6.6%) were called active. This list was built around the results that the source calls inconclusive (neither active nor inactive); the mix of calls is not that of the screen. Calls come from the whole dose curve; as a rule, active = well fitted inhibition curve with a large enough effect; inconclusive = small, poorly fitted or top-dose-only effect; inactive = flat fitted curve, though single readings scatter. Potencies beside an inconclusive call are fits to weak or partial responses and may not hold up.
# Experiment: Cytotoxic Profiling in HEK 293 Cell Line of Diverse Libraries Using Quantitative High-Throughput Screening; note: nearly all actives have a fitted effect of over 60% in size
# Settings: HEK 293 viability, ATP luminescence (CellTiter-Glo), 48-72 h; series mostly up to 115 µM
# Procedure, shortened: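 Cytotoxicity was scored by loss of ATP-coupled luminescence (CellTiter-Glo) in HEK 293 cells. Compound treatment ran 48 or 72 hr at 37 degree Celsius, 5% CO2, 95% humidity.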
# Potency is the fitted concentration of half-maximal effect; tags give direction and shape of the fitted curve.
row,Structure (SMILES),Potency
1,COc1cc2c(cc1OCc1ccccc1)N(C(=O)c1cc3ccccc3n1C)CC21CCN(C)CC1,active: 25.1 µM
2,COc1cc2c(cc1Oc1ccccc1)NC(=O)C21CCN(C(=O)c2ccccc2)CC1,"inconclusive: 20 µM [inhibitor, full curve, poor fit]"
3,COc1cc2c(cc1OCc1ccncc1)NC(=O)C21CCN(Cc2ccncc2)CC1,"inconclusive: 112 µM [inhibitor, partial curve, poor fit]"
4,Cn1nc(-c2ccc(F)cc2)cc1[C@H]1CN2CC[C@H]1C[C@@H]2CNC(=O)Nc1ccccc1,"inconclusive: 100 µM [inhibitor, partial curve, poor fit]"
5,COCc1nc(C2CC(N)C2)cc(N2CCCN3CCC[C@H]3C2)n1 (some centres undefined),inactive
6,COc1cc2c(cc1OC1CCCC1)NC(=O)C21CCN(c2nc(C)cc(C)n2)CC1,active: 89.1 µM
7,COCC(=O)NC[C@H]1C[C@@H]2CCN1C[C@@H]2c1cc(C2CCCCC2)nn1C,inactive
8,O=C1Nc2ccccc2C12CN(Cc1cccnc1)C2,"inconclusive: 100 µM [inhibitor, partial curve, poor fit]"
9,COc1ccc(S(=O)(=O)NC[C@H]2C[C@@H]3CCN2C[C@@H]3CN2CCCCC2)cc1,active: 112 µM
10,COc1ccc(-c2cc([C@H]3CN4CC[C@H]3C[C@@H]4CNC(=O)c3ccc(C(C)(C)C)cc3)n(C)n2)cc1OC,active: 20 µM
11,COc1ccc(-c2cn(C[C@H]3CC4CCN3C[C@@H]4C(=O)NCc3ccccc3OC)nn2)cc1 (some centres undefined),"inconclusive: 50.1 µM [inhibitor, partial curve, poor fit]"
12,Cc1nc(-c2cccs2)cc([C@H]2CN3CC[C@H]2C[C@@H]3COC(=O)NC2CCCCC2)n1,active: 44.7 µM
13,CCOC(=O)[C@H]1CN(C(=O)OCc2ccccc2)[C@]2(C)C(=O)N(CC3CC3)c3ccccc3[C@H]12,active: 35.5 µM
14,COc1ccccc1-c1cc([C@H]2CN3CC[C@H]2C[C@@H]3COC(=O)Nc2cccc(C(C)=O)c2)nc(C)n1,active: 89.1 µM
15,COc1cc2c(cc1OCc1ccccc1)NC(=O)C21CCN(C(C)=O)CC1,"inconclusive: 112 µM [inhibitor, single point]"
16,CCCNC(=O)N1[C@H]2CC[C@@H]1c1cnc(-c3ccccc3)nc1C2,"inconclusive: 50.1 µM [inhibitor, partial curve, poor fit]"
17,CCOC(=O)[C@H]1CN(C(=O)c2ccc(SC)cc2)[C@]2(C)C(=O)N(CC3CC3)c3ccccc3[C@H]12,"inconclusive: 35.5 µM [inhibitor, partial curve, poor fit]"
18,COc1ccc(C(=O)N2C[C@@H]3C[C@H](C2)c2c(-c4ccc(Cl)cc4)ccc(=O)n2C3)cc1,inactive
19,Cc1nc(-c2ccc(C(F)(F)F)cc2)cc([C@H]2CN3CC[C@H]2C[C@@H]3CNC(=O)N2CCOCC2)n1,"inconclusive: 89.1 µM [inhibitor, single point]"
20,COCCn1c(C)cc(C(=O)N2[C@H]3CC[C@@H]2c2cnc(-c4ccc(F)cc4)nc2C3)c1C,active: 25.1 µM
21,Cn1nc(-c2ccccc2)cc1[C@H]1CN2CC[C@H]1C[C@@H]2CNC(=O)c1ccco1,inactive
22,O=C1CC2CCN(Cc3cccc(Br)n3)CC2CCN1 (centres undefined),inactive

row,Structure (SMILES),Potency
1,O=C(NC1CCCCC1)N1C[C@@H]2C[C@H](C1)c1c(-c3ccccc3F)ccc(=O)n1C2,inactive
2,COc1cc2c(cc1Oc1cccc(N(C)C)c1)NC(=O)C21CCN(C(=O)c2cccnc2)CC1,"inconclusive: 79.4 µM [inhibitor, single point]"
3,O=C(Cc1ccc(F)cc1Cl)N1C[C@H]2CC[C@@H]1CN(Cc1cccnc1)C2,active: 35.5 µM
4,CC(C)(C)c1ccc(NC(=O)OC[C@H]2C[C@@H]3CCN2C[C@@H]3c2cc(C3CCCC3)nc(-c3ccncc3)n2)cc1,active: 20 µM
5,Cc1nc(-c2ccccc2Br)cc([C@H]2CN3CC[C@H]2C[C@@H]3CNC(=O)c2ccc(C(C)(C)C)cc2)n1,active: 10 µM
6,C=CCOc1c(Cl)cc(CNC(C)Cn2cccn2)cc1OC (centres undefined),inactive
7,CC[C@H]1CN2CC[C@H]1C[C@@H]2CNC(=O)c1ccc(-c2ccccc2)cc1,active: 89.1 µM
8,CN1CCC(N2C[C@@H]3C[C@H](C2)c2c(NC(=O)NC4CCCCC4)ccc(=O)n2C3)CC1,"inconclusive: 126 µM [inhibitor, single point]"
9,C=C[C@H]1CN2CC[C@H]1C[C@@H]2CNC(=O)c1ccc(-c2ccccc2)cc1,"inconclusive: 5.62 µM [inhibitor, full curve, poor fit]"
10,CCOC(=O)[C@H]1CN(C(=O)NC2CCCC2)[C@]2(C)C(=O)Nc3ccccc3[C@H]12,"inconclusive: 39.8 µM [inhibitor, single point]"
11,Cc1nc(-c2ccc(C(F)(F)F)cc2)cc([C@H]2CN3CC[C@H]2C[C@@H]3CNS(C)(=O)=O)n1,"inconclusive: 44.7 µM [inhibitor, partial curve, poor fit]"
12,O=C(NC1CCCCC1)[C@H]1CN2CCC1C[C@@H]2Cn1cc(CSc2ccccc2)nn1 (some centres undefined),inactive
13,O=S(=O)(NC[C@H]1C[C@@H]2CCN1C[C@@H]2CN1CCOCC1)c1ccccc1,inactive
14,CCC(CC)c1cc([C@H]2CN3CC[C@H]2C[C@@H]3CNC(=O)C(C)(C)C)nc(-c2ccncc2)n1,"inconclusive: 50.1 µM [inhibitor, partial curve, poor fit]"
15,C=C[C@H]1CN2CC[C@H]1C[C@@H]2CNC(=O)Nc1ccc(C(C)(C)C)cc1,active: 31.6 µM
16,CCOC(=O)[C@H]1CN(C(=O)OCC(C)(C)C)[C@]2(C)C(=O)N(CC3CC3)c3ccccc3[C@H]12,"inconclusive: 22.4 µM [inhibitor, full curve, poor fit]"
17,COc1cc2c(cc1Oc1cccc(N(C)C)c1)NC(=O)C21CCN(C(C)=O)CC1,"inconclusive: 100 µM [inhibitor, partial curve, poor fit]"
18,Cn1nc(C2CCCCC2)cc1[C@H]1CN2CC[C@H]1C[C@@H]2CO,"inconclusive: 126 µM [inhibitor, single point]"
19,COc1cc2c(cc1Oc1cccc(N(C)C)c1)NC(=O)C21CCN(Cc2ccccn2)CC1,active: 44.7 µM
20,CCC(CC)c1cc([C@H]2CN3CC[C@H]2C[C@@H]3CNC(C)=O)nc(-c2ccncc2)n1,active: 100 µM
21,O=[S+]1([O-])NC2(CCN(Cc3cccnc3)C2)CNc2ccccc21 (centres undefined),inactive
22,COc1ccc(NC(=O)NC[C@H]2C[C@@H]3CCN2C[C@@H]3c2cc(-c3ccccc3Br)nc(C)n2)cc1,active: 79.4 µM

row,Structure (SMILES),Potency
1,CC1CCN(CC2CCCCCN2C(=O)Cc2ccccc2)CC1 (centres undefined),"inconclusive: 56.2 µM [inhibitor, partial curve, poor fit]"
2,COc1ccc(-c2cc([C@H]3CN4CC[C@H]3C[C@@H]4CNC(=O)Nc3cccc4ccccc34)n(C)n2)cc1OC,active: 44.7 µM
3,O=C1Nc2ccccc2C12CCN(Cc1cccnc1)C2 (centres undefined),inactive
4,COc1cc2c(cc1Oc1ccccc1)NC(=O)C21CCN(C(=O)C2CCN(C)CC2)CC1,inactive
5,COCc1cn(C[C@H]2CC3CCN2C[C@@H]3C(=O)Nc2ccccc2)nn1 (some centres undefined),inactive
6,CCCNC(=O)N1[C@H]2CC[C@@H]1c1cnc(-c3ccc(F)cc3)nc1C2,"inconclusive: 44.7 µM [inhibitor, partial curve]"
7,O=[N+]([O-])c1cnc(N2CC3CCC(C2)N3CC(F)(F)F)nc1,inactive
8,Cc1ccc2c(n1)N(C)[C@H](CO)CCN(C1COC1)C2,inactive
9,CS(=O)(=O)N1C[C@@H]2C[C@H](C1)c1ccc(NC(=O)c3ccncc3)c(=O)n1C2,inactive
10,O=C(NC1CC1)[C@H]1CN2CC[C@H]1C[C@@H]2Cn1cc(-c2ccc(-c3ccccc3)cc2)nn1,"inconclusive: 112 µM [inhibitor, single point]"
11,CC(C)(C)c1ccc(-c2cn(C[C@H]3CC4CCN3C[C@@H]4C(=O)NC3CCCCC3)nn2)cc1 (some centres undefined),active: 31.6 µM
12,CCOC(=O)[C@H]1CN(C(=O)C2CCCC2)[C@]2(C)C(=O)N(CC3CC3)c3ccccc3[C@H]12,"inconclusive: 31.6 µM [inhibitor, partial curve]"
13,c1cnc2c(c1)NC1(CCCNC1)C(=NC1CCCC1)N2 (centres undefined),"inconclusive: 50.1 µM [inhibitor, partial curve, poor fit]"
14,COc1ccc(C(=O)NC[C@H]2C[C@@H]3CCN2C[C@@H]3c2cc(-c3ccc(F)cc3)nn2C)cc1,"inconclusive: 56.2 µM [inhibitor, partial curve, poor fit]"
15,CNCc1cn(C[C@H]2CC3CCN2C[C@@H]3C(=O)N(C)C)nn1 (some centres undefined),inactive
16,Cn1nc(-c2ccc3ccccc3c2)cc1[C@H]1CN2CC[C@H]1C[C@@H]2CNC(=O)c1ccco1,"inconclusive: 56.2 µM [inhibitor, partial curve, poor fit]"
17,COc1cc2c(cc1OCc1ccccc1)N(C(=O)c1cc3ccccc3[nH]1)CC21CCN(C)CC1,active: 20 µM
18,CC(=O)c1ccc(NC(=O)NC[C@H]2C[C@@H]3CCN2C[C@@H]3CN2CCC(Cc3ccccc3)CC2)cc1,"inconclusive: 79.4 µM [inhibitor, partial curve, poor fit]"
19,Cc1cccc(OCC(=O)N2CC(N(Cc3ccncc3)CC(C)C)C2)c1,"inconclusive: 89.1 µM [inhibitor, single point]"
20,CCCCOC(=O)N1C[C@H](C(=O)OCC)[C@H]2c3ccccc3NC(=O)[C@]21C,"inconclusive: 39.8 µM [inhibitor, single point]"
